Experimental data as given in the supplement of paper PMC11417369.
± gives the standard deviation of the averaged measurements. Some of the results follow.

The sequences below were run on PfAP2-EXP AP2 domain (GST-tagged) (assay: gcPBM binding intensity (ln(normalized median fluorescence intensity)); higher = stronger DNA binding).
Method in brief: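 An Agilent 4 × 180k array carrying primer-extended double-stranded 36-bp intergenic genomic probes and negative controls received GST-tagged P. falciparum DNA-binding domains expressed in E. coli, about 25 μg on average, for 1 h. The binding buffer contained 1× PBS, 1% milk, 0.2 mg/ml BSA, 0.5% salmon testes DNA and 0.03% Triton X-100. Binding intensity is the top Masliner-normalised natural-log median intensity across replicate spots of either probe orientation, read after Alexa488 anti-GST antibody staining and a 488 nm scan.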

Sequence	gcPBM binding intensity (ln)
ATGGCATAAATATATGCACACACAAAAAAAAAAAAA [CACACA_site7902]	8.43 ± 0.48
ATATATATATGTATGTATATATATATATATATGTTT [CACACA_negctrl_site248]	9.505 ± 0.064
TTTCTTTTTTTTTGAAGTACATAAAAATATAAAAAA [XGTACX_site311]	8.28 ± 0.31
TAAATTTTTTCTTTTTGTACATATTTTAAAAATGTT [XGTACX_site7526]	8.64 ± 0.54
AATATTATAAAATATTGTACTTAAAAAATTATTAAA [XGTACX_site2469]	8.06 ± 0.3
AAAAAGAAAAAGAGCACACAAAAATATTTAACCTTT [CACACA_site2747]	8.48 ± 0.63
GATAAATATTTAATATGTACATATATTATATATATA [XGTACX_site117]	8.87 ± 0.014
GTTATATATGATGGAAGCACTTGGAAGAGGGAAATA [CACACA_negctrl_site1831]	8.84 ± 0.45
TATATACACACCGTGTGTACATATACATTAACTGAA [XGTACX_site7120]	8.61 ± 0.35
AAAAATAAAAAAATAAAAAATAAAAAAATAAAAAAT [CACACA_negctrl_site1425]	8.32 ± 0.56
ATTAAAGTTATAAATTCACACATGTAAATGTATTTA [CACACA_site5279]	8.19 ± 0.37
ATATATTATATATGCGCACACACGAATTTTTTTTTT [CACACA_site2393]	8.97 ± 0.36
TATATATATATAATATGTACATATATACATGCCTTG [XGTACX_site2791]	9.78 ± 0.39
TACACTAATGACAGTTGTACTTTTATTCGATAGAAT [XGTACX_site738]	8.4 ± 0.33
ACTTTTTTTTTGTGTGTGCACTCGATTATATACATA [GTGCAC_site9846]	9.38 ± 0.26
TCGAAAATGACGAATGGTACAGTATGTATAAAAATA [XGTACX_site1258]	8.66 ± 0.4
TCAAAATTGCTTTGTTGTACTAATAAAATTTATTAC [XGTACX_site1121]	8.57 ± 0.37
TATATATACATACGTACACACAAATATTAAAATATA [CACACA_site1951]	8.6 ± 0.28
TATCTGTAAACATATTCACACACATAAATTCGCATA [CACACA_site8557]	8.63 ± 0.52

Sequence	gcPBM binding intensity (ln)
AAAAAAAAATGTCATGGTACACAATTTTTTCTTTTT [XGTACX_site4505]	8.14 ± 0.4
TAAAGTAAAACAAGGTAAGGTTTTTCTTTTTCTTTT [CACACA_negctrl_site1271]	8 ± 0.49
TAGATTATTTTATTTAGTACATAAAAAAGTAAGACC [XGTACX_site7889]	8.71 ± 0.2
AATAAATTATGAACGGTGCAGGAAAAATTGTAACAT	9.29 ± 0.3
TGAAGTGCAAAATACTGTACGTAATGTGCTTGTTAC [XGTACX_site4512]	8.75 ± 0.23
CAAAAAAACAAACACACACACACACCGATATATATA [CACACA_site9218]	8.74 ± 0.48
AAACATAAGGGACACACACACATATATATATATATA [CACACA_site5920]	10.3 ± 0.16
CAATCTTTTACGAATACACACACATAAAGAAAAAAA [CACACA_site8367]	8.71 ± 0.49
AATTTTTTATATGTCACACATTTGTTATTATTATTA [CACACA_site4197]	8.65 ± 0.4
TTAAATAAATAAAAATGTACATGCATATATAAATAT [XGTACX_site8908]	8.93 ± 0.33
ACATATAGAAGTATCTATAAACAGTGATAGCATTTT [CACACA_negctrl_site1122]	8.41 ± 0.29
AAAAAGAATAAATAAATATAAATAAATAAATATATA [GTGCAC_negctrl_site336]	8.27 ± 0.26
AAAACACAAAAAAAATGTACACATATATATATATAT [XGTACX_site8509]	10 ± 0.38
TAACTATATTTTTACTGTACAAAAAAATTAAATAAT [XGTACX_site1765]	8.43 ± 0.38
ATATTAATTCTACATTGTACACATGAAAAAATATAA [XGTACX_site8759]	8.51 ± 0.33
AAATTAAATAAATTTACACACTAAAAATTACAGATA [CACACA_site4722]	8.38 ± 0.47
CATTATGTCGTAAATACACACATACAGATACATACA [CACACA_site4880]	8.56 ± 0.34
AAAAAACACCCACATACACACAAAAATGTTATAAAT [CACACA_site81]	8.77 ± 0.8
TTTTTATTTGGTTGTGTACACATATATATATATATA [CACACA_site5844]	10.2 ± 0.3

Sequence	gcPBM binding intensity (ln)
GTTATATATAATAATTGTACAAAATTAAATATAACT [XGTACX_site4189]	8.48 ± 0.44
CTAAGAAAAAATAAAGCACACAAATATTTTAAAAAC [CACACA_site9094]	8.8 ± 0.4
AAAATATGTAGACACATACACACATATATATATATA [CACACA_site1221]	10.1 ± 0.26
TTTTCTTTTTCCAAAAGTACGTAATTTAAACATTTT [XGTACX_site2066]	8.48 ± 0.37
TATATGTATGTTTGTTTGTTTGTATTTTTTAAGGTA [XGTACX_negctrl_site619]	8.72 ± 0.19
TTTTTTTTTTCAAATGCATGCAAAAAAAAAAAAATA [TGCATGCA_site945]	9.26 ± 0.28
ATAATTATGAAGCATACATGCATGTCCTGGCTTAAA [TGCATGCA_site491]	9.15 ± 0.3
AAATTAGAAATACCTACACACTTATCAAAATAAATT [CACACA_site7132]	8.23 ± 0.49
TTATAATATGGATACACACACATATATAAATATATA [CACACA_site5314]	8.36 ± 0.4
AAAAAATAAATAAATACACACAAATCTATATTTATA [CACACA_site7243]	8.12 ± 0.57
ATCTAAATTTTTCCATGTACATATACTTTTATGCAT [XGTACX_site2683]	9.29 ± 0.53
GCAAGGAAATAATTGATAATATATATATATATATAT [GTGCAC_negctrl_site400]	10.1 ± 0.28
GAGTAAATAAATAAATGTACATATATATATATTATC [XGTACX_site8466]	8.56 ± 0.41
TATAATAAATATTAACGTACTCATATATATATATAT [XGTACX_site3871]	10.1 ± 0.52
AATATATATATATATATATATTTTTGTTAGAATATG [XGTACX_negctrl_site58]	8.45 ± 0.12
ATACATAAATATTGATGTACTCATTTAATATATTAT [XGTACX_site3992]	8.38 ± 0.26
CTAAAATACGGACACACACACACATATATATATATA [CACACA_site6138]	10.3 ± 0.15
AAAAAAAAAAAAAACACACACACAAAAAAAAATATA [CACACA_site1104]	8.48 ± 0.45
